Measured values reported in publication PMC4336329 (PLoS ONE, 2015).
The campaign covered roughly 310,000 compounds. About 14,000 (4.5%) showed an effect of 50% or more. Effects have a minus sign here. The list shows a part of the results.

Target: human ether-à-go-go-related gene (hERG) potassium channel (human, UniProt Q12809)
Experiment: primary screen, population patch clamp on CHO cells stably expressing hERG
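Also: peak tail current of the secondary pulse compared with the same well before compound.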

Chain of human ether-à-go-go-related gene (hERG) potassium channel (Q12809 whole entry, looked up): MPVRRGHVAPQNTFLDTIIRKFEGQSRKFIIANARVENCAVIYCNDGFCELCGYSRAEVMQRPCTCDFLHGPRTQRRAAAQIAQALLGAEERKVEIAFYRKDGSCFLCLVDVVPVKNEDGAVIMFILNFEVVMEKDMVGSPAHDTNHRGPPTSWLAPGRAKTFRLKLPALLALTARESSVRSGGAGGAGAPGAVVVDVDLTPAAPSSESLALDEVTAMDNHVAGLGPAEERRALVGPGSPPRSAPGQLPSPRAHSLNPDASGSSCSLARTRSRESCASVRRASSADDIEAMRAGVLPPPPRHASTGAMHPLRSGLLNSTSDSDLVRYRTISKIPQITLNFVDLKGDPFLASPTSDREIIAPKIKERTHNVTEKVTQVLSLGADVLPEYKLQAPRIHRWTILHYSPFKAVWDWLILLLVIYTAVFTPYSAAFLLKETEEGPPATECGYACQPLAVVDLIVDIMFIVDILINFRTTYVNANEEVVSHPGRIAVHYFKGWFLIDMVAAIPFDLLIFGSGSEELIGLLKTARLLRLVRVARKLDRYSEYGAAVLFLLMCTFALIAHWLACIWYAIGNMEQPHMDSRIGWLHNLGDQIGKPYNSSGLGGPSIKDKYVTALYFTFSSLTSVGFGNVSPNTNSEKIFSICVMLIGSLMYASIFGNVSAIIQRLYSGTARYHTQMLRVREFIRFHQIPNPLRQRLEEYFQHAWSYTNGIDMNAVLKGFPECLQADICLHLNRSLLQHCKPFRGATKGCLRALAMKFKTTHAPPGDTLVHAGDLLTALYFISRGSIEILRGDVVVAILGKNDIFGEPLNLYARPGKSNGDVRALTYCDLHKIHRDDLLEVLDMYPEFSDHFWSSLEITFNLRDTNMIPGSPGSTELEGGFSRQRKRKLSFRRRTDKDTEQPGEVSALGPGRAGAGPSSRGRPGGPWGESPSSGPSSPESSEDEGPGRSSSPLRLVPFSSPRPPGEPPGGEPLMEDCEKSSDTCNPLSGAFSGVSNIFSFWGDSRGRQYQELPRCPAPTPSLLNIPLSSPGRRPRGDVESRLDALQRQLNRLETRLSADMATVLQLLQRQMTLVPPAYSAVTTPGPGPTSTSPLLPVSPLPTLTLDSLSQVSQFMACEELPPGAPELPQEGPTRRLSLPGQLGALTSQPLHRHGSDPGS

**Q.** How did the “hERG current change (%, negative = inhibition) at 10uM” value turn out when `CC(C)N1CCc2[nH]c(=S)[nH]c(=O)c2C1` was run?
**A.** The value was -4.1%.

**Q.** How did the “hERG current change (%, negative = inhibition) at 10uM” value turn out when `CN(Cc1cccs1)S(=O)(=O)c1cccs1` was run?
**A.** Its value is -7.71%.

**Q.** Which “hERG current change (%, negative = inhibition) at 10uM” value does the source give for `CC(=O)N1N=C(c2cccs2)CC1c1cc2cc(C)ccc2nc1Cl` (centres unmarked) here?
**A.** The value was -0.431%.

**Q.** `Cc1ccc(C(C)C)c(OCC(=O)Nc2sc3c(c2C#N)CC(C)(C)NC3(C)C)c1` was tested. Which “hERG current change (%, negative = inhibition) at 10uM” value did it give?
**A.** The value was 10.1%.

**Q.** For `O=C(Nc1ccc(F)c(F)c1)c1cnc(-c2ccccc2)nc1-c1ccccc1`, which “hERG current change (%, negative = inhibition) at 10uM” value is on record?
**A.** The value was -16.7%.

**Q.** Which “hERG current change (%, negative = inhibition) at 10uM” value does the source give for `CCCCc1nc2ccccc2c(=O)n1NC(=O)c1c(O)c2cccc3c2n(c1=O)CC3` here?
**A.** The value was -0.16%.

**Q.** For `O=C(Nc1ccccc1C(=O)O)c1cc(S(=O)(=O)N2CCOCC2)c(Br)s1`, which “hERG current change (%, negative = inhibition) at 10uM” value is on record?
**A.** Its value is 17.6%.

**Q.** Which “hERG current change (%, negative = inhibition) at 10uM” value does the source give for `COC(=O)C1CCCN1C(=O)COc1ccc(Cl)cc1Br` (centres unmarked) here?
**A.** Its value is -6.09%.

**Q.** Which “hERG current change (%, negative = inhibition) at 10uM” value does the source give for `CN(C)c1ccc(NC(=S)c2ccccn2)cc1` here?
**A.** Its value is 14.1%.

**Q.** Which “hERG current change (%, negative = inhibition) at 10uM” value does the source give for `c1csc(-c2ccc3ccccc3n2)c1` here?
**A.** The value was 13.5%.

**Q.** With `NS(=O)(=O)c1ccc(CNC(=S)Nc2ccc(F)c(Cl)c2)cc1` as the molecule, how does the “hERG current change (%, negative = inhibition) at 10uM” value read?
**A.** Its value is 33.9%.

**Q.** With `NC(=O)[C@@H]1CCCNc2c(I)cc([N+](=O)[O-])cc2C(=O)N[C@@H](CO)C(=O)N[C@@H](Cc2ccc(O)cc2)C(=O)N1` as the molecule, how does the “hERG current change (%, negative = inhibition) at 10uM” value read?
**A.** The value was 16.5%.

**Q.** How did the “hERG current change (%, negative = inhibition) at 10uM” value turn out when `CCN(CC)S(=O)(=O)c1ccc(C(=O)NCC(=O)N/N=C/c2ccccc2OC)cc1` was run?
**A.** Its value is -20.2%.

**Q.** For `Cc1ccc(NC(=O)CCNS(=O)(=O)c2ccc3[nH]c(=O)oc3c2)cc1F`, which “hERG current change (%, negative = inhibition) at 10uM” value is on record?
**A.** Its value is 10.2%.

**Q.** How did the “hERG current change (%, negative = inhibition) at 10uM” value turn out when `Cc1nc(Nc2cccc(Cl)c2)c2oc3ccccc3c2n1.Cl` was run?
**A.** Its value is 11.1%.

**Q.** For `COc1ccc(C(=O)n2nc(C)c(Br)c2C)cc1`, which “hERG current change (%, negative = inhibition) at 10uM” value is on record?
**A.** The value was 16%.

**Q.** For `Cc1nc(NC(=O)c2ccc(F)cc2)sc1C(=O)Nc1ccc2c(c1)CCC2`, which “hERG current change (%, negative = inhibition) at 10uM” value is on record?
**A.** Its value is 13.1%.

**Q.** For `CCCCCNc1nc(NCCCO)c(C#N)c2c1CN(C)CC2`, which “hERG current change (%, negative = inhibition) at 10uM” value is on record?
**A.** The value was -75.2%.

**Q.** With `Oc1ccc2ccccc2c1CN1CCN(c2ccccc2)CC1` as the molecule, how does the “hERG current change (%, negative = inhibition) at 10uM” value read?
**A.** Its value is 13.2%.

**Q.** With `CCC(=O)N1CCC2(CC1)Oc1ccc(F)cc1C(=O)C21CC(c2ccccc2)=NO1` (centres unmarked) as the molecule, how does the “hERG current change (%, negative = inhibition) at 10uM” value read?
**A.** Its value is -21.3%.

**Q.** How did the “hERG current change (%, negative = inhibition) at 10uM” value turn out when `CCOc1ccc(N2CC(C(=O)Nc3ccccc3N3CCCC3)CC2=O)cc1` (centres unmarked) was run?
**A.** The value was -44.3%.

**Q.** For `Cc1ccc(-c2cc(-c3ccccc3)no2)cc1`, which “hERG current change (%, negative = inhibition) at 10uM” value is on record?
**A.** The value was 15.5%.

**Q.** For `Cc1cccc(NCC(=O)N/N=C/c2cccc(Br)c2)c1`, which “hERG current change (%, negative = inhibition) at 10uM” value is on record?
**A.** The value was -7.92%.

**Q.** How did the “hERG current change (%, negative = inhibition) at 10uM” value turn out when `C=CCN(CC=C)C(=O)c1cc(Cl)ccc1[N+](=O)[O-]` was run?
**A.** Its value is -2.88%.

**Q.** How did the “hERG current change (%, negative = inhibition) at 10uM” value turn out when `Cc1ccc(S(=O)(=O)N2CC3(C)CN(S(=O)(=O)c4ccc(C)cc4)CC(C)(C2)C3=O)cc1` was run?
**A.** The value was 14.4%.

**Q.** With `Cc1cccc(/C(N)=N/OC(=O)c2ccc(F)cc2)c1` as the molecule, how does the “hERG current change (%, negative = inhibition) at 10uM” value read?
**A.** Its value is -0.87%.

**Q.** For `O=C(O/N=C1\CCS(=O)(=O)c2sccc21)C1CC1`, which “hERG current change (%, negative = inhibition) at 10uM” value is on record?
**A.** Its value is 14.8%.

**Q.** For `NNc1nc2ccc(Cl)cc2s1`, which “hERG current change (%, negative = inhibition) at 10uM” value is on record?
**A.** The value was -8.65%.

**Q.** How did the “hERG current change (%, negative = inhibition) at 10uM” value turn out when `O=C(NCc1ccc(Cl)cc1)C1CCN(S(=O)(=O)c2ccccc2)CC1` was run?
**A.** The value was 13%.

**Q.** How did the “hERG current change (%, negative = inhibition) at 10uM” value turn out when `C[C@]12CCC3[C@@H](CCC4=CC(=O)CC[C@@]43C=O)C1CCC2=O` (some centres unmarked) was run?
**A.** Its value is 12%.

**Q.** With `COc1cc2c(cc1OC)C1=C(C#N)CN(C3CCCCC3)CN1CC2` as the molecule, how does the “hERG current change (%, negative = inhibition) at 10uM” value read?
**A.** The value was -2.97%.

**Q.** `C/C(=N\NC(=O)Cc1c(F)cccc1Cl)c1cccnc1` was tested. Which “hERG current change (%, negative = inhibition) at 10uM” value did it give?
**A.** Its value is 19.5%.

**Q.** For `O=C(NCC(c1ccco1)N1CCc2ccccc2C1)c1ccccc1` (centres unmarked), which “hERG current change (%, negative = inhibition) at 10uM” value is on record?
**A.** Its value is -19%.

**Q.** How did the “hERG current change (%, negative = inhibition) at 10uM” value turn out when `Cc1ccc2oc(=O)c(-c3ccc(O)cc3)c(C)c2c1` was run?
**A.** The value was 11.8%.

**Q.** With `Cc1ccc(CNC(=O)CN2C(=O)NC(C)(c3ccccc3Cl)C2=O)cc1` (centres unmarked) as the molecule, how does the “hERG current change (%, negative = inhibition) at 10uM” value read?
**A.** The value was 12.1%.

**Q.** How did the “hERG current change (%, negative = inhibition) at 10uM” value turn out when `O=C1Nc2ccc(Br)cc2/C1=N/N=C/C1=C(N2CCOCC2)C(=C\c2ccccc2)/CC1` was run?
**A.** The value was 8.49%.

**Q.** With `Cc1ccc(N2C(=O)CS(=O)C(c3ccccc3)C2=O)cc1C` (centres unmarked) as the molecule, how does the “hERG current change (%, negative = inhibition) at 10uM” value read?
**A.** The value was 15.9%.

**Q.** For `CCN(CC(=O)Nc1c(F)cccc1F)C(=O)CNC(=O)c1sc2ccccc2c1Cl`, which “hERG current change (%, negative = inhibition) at 10uM” value is on record?
**A.** The value was 16.3%.

**Q.** How did the “hERG current change (%, negative = inhibition) at 10uM” value turn out when `Cc1cc(Nc2ccccc2)c2c([N+](=O)[O-])cc(C)c(C)c2n1` was run?
**A.** Its value is -9.29%.

**Q.** How did the “hERG current change (%, negative = inhibition) at 10uM” value turn out when `CCC1CCCN1Cn1cnc2c([nH]c3ccc(C)cc32)c1=O` (centres unmarked) was run?
**A.** The value was -67.1%.

**Q.** With `COc1ccc(-c2c(NC(=O)c3ccco3)oc3c(C)cccc3c2=O)cc1` as the molecule, how does the “hERG current change (%, negative = inhibition) at 10uM” value read?
**A.** Its value is 0.789%.

**Q.** Which “hERG current change (%, negative = inhibition) at 10uM” value does the source give for `COc1ccc(C(=O)OCC(=O)NC2CC2)cc1S(=O)(=O)N1CCOCC1` here?
**A.** The value was 9.9%.

**Q.** For `CCn1c(C)c(C)c2cc(C(=O)NCCCN3CCOCC3)ccc21`, which “hERG current change (%, negative = inhibition) at 10uM” value is on record?
**A.** Its value is -0.854%.

**Q.** Which “hERG current change (%, negative = inhibition) at 10uM” value does the source give for `CNS(=O)(=O)c1cc(Br)ccc1S(=O)c1ccccc1C(=O)O` (centres unmarked) here?
**A.** The value was 32.2%.

**Q.** For `CCOc1ccc(NC(=O)CN(C)C(=O)c2sc3ccccc3c2Cl)cc1OCC`, which “hERG current change (%, negative = inhibition) at 10uM” value is on record?
**A.** Its value is -3.01%.

**Q.** With `Cc1ccc(C(CC(=O)O)Nc2nc(N3CCCCC3)nc(N3CCCCC3)n2)cc1` (centres unmarked) as the molecule, how does the “hERG current change (%, negative = inhibition) at 10uM” value read?
**A.** The value was -1.53%.

**Q.** With `CCOC(=O)C1=C(C)Nc2nnnn2C1c1cccnc1` (centres unmarked) as the molecule, how does the “hERG current change (%, negative = inhibition) at 10uM” value read?
**A.** Its value is 17.4%.

**Q.** Which “hERG current change (%, negative = inhibition) at 10uM” value does the source give for `COc1ccc(CNC(=O)C2CCC(CNS(=O)(=O)c3cccs3)CC2)cc1` (centres unmarked) here?
**A.** Its value is -18.9%.

**Q.** How did the “hERG current change (%, negative = inhibition) at 10uM” value turn out when `CC1CCN(CCCNC(=O)c2nn(C)c3c2CS(=O)(=O)c2ccccc2-3)CC1` was run?
**A.** Its value is -23.6%.

**Q.** For `Cc1cc(C)c2[nH]c(O)c(N=NC(=S)NCC3CCCO3)c2c1` (centres unmarked), which “hERG current change (%, negative = inhibition) at 10uM” value is on record?
**A.** Its value is -0.911%.

**Q.** How did the “hERG current change (%, negative = inhibition) at 10uM” value turn out when `CC(C(=O)c1cn(C)c2ccccc12)c1ccccc1` (centres unmarked) was run?
**A.** Its value is 19.5%.

**Q.** `COc1ccc(NC(=O)[C@H](C)NC(N)=O)cc1S(=O)(=O)Nc1cc(C)ccc1Br` was tested. Which “hERG current change (%, negative = inhibition) at 10uM” value did it give?
**A.** Its value is 3.07%.

**Q.** How did the “hERG current change (%, negative = inhibition) at 10uM” value turn out when `COc1ccc(CCNC(=O)C2CCN(S(=O)(=O)c3ccc(OC)c(OC)c3)CC2)cc1OC` was run?
**A.** Its value is 7.84%.

**Q.** For `Cc1ccccc1NC(=O)CCC(=O)N/N=C/c1ccc(F)cc1`, which “hERG current change (%, negative = inhibition) at 10uM” value is on record?
**A.** Its value is 30%.

**Q.** Which “hERG current change (%, negative = inhibition) at 10uM” value does the source give for `CC1=Nc2cc(Cl)ccc2Oc2ccccc21` here?
**A.** The value was 12.7%.

**Q.** With `Cn1c(=O)n(Cc2ccccc2F)c2ccccc21` as the molecule, how does the “hERG current change (%, negative = inhibition) at 10uM” value read?
**A.** Its value is -16.3%.
